In patent US20170342169A1 (published 2017):

Tests used:
[1] = molecular target: human CD40 on cells (HEK293 transfectants, HEK-Blue CD40 reporter cells, human B cells, moDC, PBMC) (human, UniProt P25942 21-277); assay: cell-based or functional assay
[2] = molecular target: CD40 (binding assays of Example 4; species and form not stated) (UniProt P25942 part only, limits assumed); assay: antigen binding, method not stated
human mesothelin = molecular target: T1, human mesothelin (human, UniProt Q13421 296-580, limits assumed); assay: SPR
T1 construct: also called Human MSLN

[3] = molecular target: T2, soluble form of the extracellular domain of human CD40 (Creative BioMart) (human, UniProt P25942 part only); assay: SPR
T2 construct: Bought

[4] = molecular target: T3, soluble form of the extracellular domain of cynomolgus (cyno) CD40 (Creative BioMart) (cynomolgus, UniProt G7PG38 21-193); assay: SPR
T3 construct: extracellular domain; also called Cynomolgus CD40

cynomolgus mesothelin = molecular target: T4, cynomolgus mesothelin (cynomolgus); assay: SPR
T4 construct: also called cynoMSLN; Cyno MSLN

Sequence of human mesothelin (Q13421 other isoform, or with tags, fused parts or gaps limits assumed): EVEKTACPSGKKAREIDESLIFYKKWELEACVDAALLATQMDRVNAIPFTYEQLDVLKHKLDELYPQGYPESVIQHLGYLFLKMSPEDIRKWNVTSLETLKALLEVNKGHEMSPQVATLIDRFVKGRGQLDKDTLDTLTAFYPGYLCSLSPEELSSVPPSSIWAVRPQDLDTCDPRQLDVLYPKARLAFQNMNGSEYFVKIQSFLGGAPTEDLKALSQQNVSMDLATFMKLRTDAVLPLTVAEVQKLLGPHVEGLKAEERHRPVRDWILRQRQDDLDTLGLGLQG

B1: V6-6 (bispecific antibody)
chain: EVQLQESGPGLVKPSETLSLTCTVSGYSITSNYYWNWIRQPPGKGLEWMGYIRYDGSNNYNPSLKNRVTISRDTSKNQFSLKLSSVTAADTAVYYCARLDYWGQGTTVTVSSGGGGSGGGGSGGGGSGGGGSGGGGSGGGGSDAQMTQSPSSLSASVGDRVTITCRSSQSLENTNGNTFLNWFQQKPGKAPKLLIYRVSNRFSGVPSRFSGSGSGTDFTLTISSLQPEDFATYYCLQVTHVPFTFGQGTKLEIKR[human IgG1 Fc with C220S V263L (EU numbers) not written out]GGGGSGGGSGGGSGGGGSSYELTQPPSVSVAPGQTARISCSGDKLGDKYASWYQQKPGQAPVLVIYQDNRRPSGIPERFSGSNSGNTATLTISGTQAEDEADYYCQAWDSDTYVFGGGTKLTVLGQGGGGSGGGGSGGGGSGGGGSGGGGSGGGGSEVQLVQSGAEVKKPGASVKVSCKASGDTFKRYYVHWVRQAPGQGLEWMGIINPSGVSTTYAQKFQGRVTMTRDTSTSTVYMELSSLRSEDTAVYYCAEVRGSGFNYFGMDVWGQGTLVTVSS
**Q.** Which “Max. IL-12p70, dendritic cells with HEK293 cells expressing mesothelin” value [1] does the source give for B1 here?
**A.** 300 pg/mL

B2: B40 (bispecific antibody, IgG1)
chain: EVQLQESGPGLVKPSETLSLTCTVSGYSITSNYYWNWIRQPPGKGLEWMGYIRYDGSNNYNPSLKNRVTISRDTSKNQFSLKLSSVTAADTAVYYCARLDYWGQGTTVTVSSDLSGGGGSGGGGSGGGGSGGGGSTGDAVMTQTPLSLSVTPGQPASISCRSSQSLENTNGNTFLNWYLQKPGQSPQLLIYRVSNRFSGVPDRFSGSGSGTDFTLKISRVEAEDVGVYYCLQVTHVPFTFGQGTKLEIKRLE[human IgG1 Fc with C220S V273E (EU numbers) not written out]VDGASSPVNVSSPSVQDISYELTQPPSVSVSPGQTASITCSGDKLGDKYASWYQQKPGQSPVLVIYQDNRRPSGIPERFSGSNSGNTATLTISGTQAMDEADYYCQAWDSDTYVFGTGTKVTVLGQDLSGGGGSGGGGSGGGGSGGGGSTGEVQLVQSGAEVKKPGASVKVSCKASGDTFKRYYVHWVRQAPGQGLEWMGIINPSGVSTTYAQKFQGRVTMTRDTSTSTVYMELSSLRSEDTAVYYCAEVRGSGFNYFGMDVWGQGTLVTVSS
notes: huAb9-5 (VH-VL) N-terminal, HuAM15 (VL-VH) C-terminal, huIgG1 V273E
**Q.** Which EC50 [2] does the source give for B2 here?
**A.** 0.4 µg/mL

B3: B41 (bispecific antibody, IgG1)
chain: DAVMTQTPLSLSVTPGQPASISCRSSQSLENTNGNTFLNWYLQKPGQSPQLLIYRVSNRFSGVPDRFSGSGSGTDFTLKISRVEAEDVGVYYCLQVTHVPFTFGQGTKLEIKRDLSGGGGSGGGGSGGGGSGGGGSTGEVQLQESGPGLVKPSETLSLTCTVSGYSITSNYYWNWIRQPPGKGLEWMGYIRYDGSNNYNPSLKNRVTISRDTSKNQFSLKLSSVTAADTAVYYCARLDYWGQGTTVTVSSR[human IgG1 Fc with C220S V273E (EU numbers) not written out]VDGASSPVNVSSPSVQDIEVQLVQSGAEVKKPGASVKVSCKASGDTFKRYYVHWVRQAPGQGLEWMGIINPSGVSTTYAQKFQGRVTMTRDTSTSTVYMELSSLRSEDTAVYYCAEVRGSGFNYFGMDVWGQGTLVTVSSDLSGGGGSGGGGSGGGGSGGGGSTGSYELTQPPSVSVSPGQTASITCSGDKLGDKYASWYQQKPGQSPVLVIYQDNRRPSGIPERFSGSNSGNTATLTISGTQAMDEADYYCQAWDSDTYVFGTGTKVTVLGQ
notes: huAb9-5 (VL-VH) N-terminal, HuAM15 (VH-VL) C-terminal, huIgG1 V273E
**Q.** For B3, which EC50 [2] is on record?
**A.** 0.5 µg/mL

B4: B42 (bispecific antibody, IgG1)
chain: DAVMTQTPLSLSVTPGQPASISCRSSQSLENTNGNTFLNWYLQKPGQSPQLLIYRVSNRFSGVPDRFSGSGSGTDFTLKISRVEAEDVGVYYCLQVTHVPFTFGQGTKLEIKRDLSGGGGSGGGGSGGGGSGGGGSTGEVQLQESGPGLVKPSETLSLTCTVSGYSITSNYYWNWIRQPPGKGLEWMGYIRYDGSNNYNPSLKNRVTISRDTSKNQFSLKLSSVTAADTAVYYCARLDYWGQGTTVTVSSR[human IgG1 Fc with C220S V273E (EU numbers) not written out]VDGASSPVNVSSPSVQDISYELTQPPSVSVSPGQTASITCSGDKLGDKYASWYQQKPGQSPVLVIYQDNRRPSGIPERFSGSNSGNTATLTISGTQAMDEADYYCQAWDSDTYVFGTGTKVTVLGQDLSGGGGSGGGGSGGGGSGGGGSTGEVQLVQSGAEVKKPGASVKVSCKASGDTFKRYYVHWVRQAPGQGLEWMGIINPSGVSTTYAQKFQGRVTMTRDTSTSTVYMELSSLRSEDTAVYYCAEVRGSGFNYFGMDVWGQGTLVTVSS
notes: huAb9-5 (VL-VH) N-terminal, HuAM15 (VL-VH) C-terminal, huIgG1 V273E
**Q.** For B4, which EC50 [2] is on record?
**A.** 0.8 µg/mL

B5: B44 (bispecific antibody, IgG1)
chain: SYELTQPPSVSVSPGQTASITCSGDKLGDKYASWYQQKPGQSPVLVIYQDNRRPSGIPERFSGSNSGNTATLTISGTQAMDEADYYCQAWDSDTYVFGTGTKVTVLGQDLSGGGGSGGGGSGGGGSGGGGSTGEVQLVQSGAEVKKPGASVKVSCKASGDTFKRYYVHWVRQAPGQGLEWMGIINPSGVSTTYAQKFQGRVTMTRDTSTSTVYMELSSLRSEDTAVYYCAEVRGSGFNYFGMDVWGQGTLVTVSS[human IgG1 Fc with C220S V273E (EU numbers) not written out]VDGASSPVNVSSPSVQDIEVQLVQSGAEVKKPGSSVKVSCKASGYTFTDYYINWVRQAPGQGLEWIGWIFPGSGSVYCNEQFKGRATLTVDRSTSTAYMELSSLRSEDTAVYFCASSLGKFAYWGQGTLVTVSSDLSGGGGSGGGGSGGGGSGGGGSTGDIQMTQSPSSLSASVGDRVTITCKASQSVVTAVAWYQQKPGKSPKLLIYSASNRYTGVPSRFSGSGSGTDFTLTISSLQPEDFATYFCQQYSSYPYTFGGGTKVEIKR
notes: HuAM15 (VL-VH) N-terminal, huAb8-1 (VH-VL) C-terminal, huIgG1 V273E
**Q.** How did the EC50 [2] turn out when B5 was run?
**A.** 0.8 µg/mL

B6: B46 (bispecific antibody, IgG1)
chain: SYELTQPPSVSVSPGQTASITCSGDKLGDKYASWYQQKPGQSPVLVIYQDNRRPSGIPERFSGSNSGNTATLTISGTQAMDEADYYCQAWDSDTYVFGTGTKVTVLGQDLSGGGGSGGGGSGGGGSGGGGSTGEVQLVQSGAEVKKPGASVKVSCKASGDTFKRYYVHWVRQAPGQGLEWMGIINPSGVSTTYAQKFQGRVTMTRDTSTSTVYMELSSLRSEDTAVYYCAEVRGSGFNYFGMDVWGQGTLVTVSS[human IgG1 Fc with C220S V273E (EU numbers) not written out]VDGASSPVNVSSPSVQDIEVQLQESGPGLVKPSETLSLTCTVSGYSITSNYYWNWIRQPPGKGLEWMGYIRYDGSNNYNPSLKNRVTISRDTSKNQFSLKLSSVTAADTAVYYCARLDYWGQGTTVTVSSDLSGGGGSGGGGSGGGGSGGGGSTGDAVMTQTPLSLSVTPGQPASISCRSSQSLENTNGNTFLNWYLQKPGQSPQLLIYRVSNRFSGVPDRFSGSGSGTDFTLKISRVEAEDVGVYYCLQVTHVPFTFGQGTKLEIKR
notes: HuAM15 (VL-VH) N-terminal, huAb9-5 (VH-VL) C-terminal, huIgG1 V273E
**Q.** For B6, which EC50 [2] is on record?
**A.** 0.5 µg/mL

B7: V5-2 (bispecific antibody)
chain: EVQLQESGPGLVKPSETLSLTCTVSGYSITSNYYWNWIRQPPGKGLEWMGYIRYDGSNNYNPSLKNRVTISRDTSKNQFSLKLSSVTAADTAVYYCARLDYWGQGTTVTVSSGGGGSGGGGSGGGGSGGGGSGGGGSGGGGSDAVMTQTPLSLSVTPGQPASISCRSSQSLENTNGNTFLNWYLQKPGQSPQLLIYRVSNRFSGVPDRFSGSGSGTDFTLKISRVEAEDVGVYYCLQVTHVPFTFGQGTKLEIKR[human IgG1 Fc with C220S V263L (EU numbers) not written out]GGGGSGGGSGGGSGGGGSSYELTQPPSVSVSPGQTASITCSGDKLGDKYASWYQQKPGQSPVLVIYQDNRRPSGIPERFSGSNSGNTATLTISGTQAMDEADYYCQAWDSDTYVFGTGTKVTVLGGGGSGGGGSGGGGSGGGGSGGGGSGGGGSEVQLVQSGAEVKKPGASVKVSCKASGDTFKRYYVHWVRQAPGQGLEWMGIINPSGVSTTYAQKFQGRVTMTRDTSTSTVYMELSSLRSEDTAVYYCAEVRGSGFNYFGMDVWGQGTLVTVSS
**Q.** Which results are given for B7?
**A.** Kd (human mesothelin): 2 nM; koff (human mesothelin): 2.8e-05 s⁻¹; kon (human mesothelin): 14000 M⁻¹ s⁻¹; Kd [3]: 150 nM; koff [3]: 0.25 s⁻¹; kon [3]: 1.7e+06 M⁻¹ s⁻¹; Kd [4]: 120 nM; koff [4]: 0.11 s⁻¹; kon [4]: 940000 M⁻¹ s⁻¹; Kd (cynomolgus mesothelin): 0.84 nM; koff (cynomolgus mesothelin): 5.9e-05 s⁻¹; kon (cynomolgus mesothelin): 70000 M⁻¹ s⁻¹

B8: V6-8 (bispecific antibody)
chain: EVQLQESGPGLVKPSETLSLTCTVSGYSITSNYYWNWIRQPPGKGLEWMGYIRYDGSNNYNPSLKNRVTISRDTSKNQFSLKLSSVTAADTAVYYCARLDYWGQGTTVTVSSGGGGSGGGGSGGGGSGGGGSGGGGSGGGGSDAQMTQSPSSLSASVGDRVTITCRSSQSLENTNGNTFLNWFQQKPGKAPKLLIYRVSNRFSGVPSRFSGSGSGTDFTLTISSLQPEDFATYYCLQVTHVPFTFGQGTKLEIKR[human IgG1 Fc with C220S V263L (EU numbers) not written out]GGGGSGGGSGGGSGGGGSEVQLLESGGGLVQPGGSLRLSCAASGFTFSSYAMSWVRQAPGKGLEWVSAISGGGGRTYYADSVKGRFTISRDNSKNTLYLQMNSLRAEDTAVYYCAREEMAFRAYRFDIWGQGTLVTVSSGGGGSGGGGSGGGGSGGGGSGGGGSGGGGS[about 100 residues not written out]
**Q.** With B8 as the binder, how does the Kd (human mesothelin) read?
**A.** 11 nM

**Q.** What about the koff (human mesothelin) of the same binder?
**A.** 0.0015 s⁻¹

**Q.** And the kon (human mesothelin)?
**A.** 130000 M⁻¹ s⁻¹

**Q.** And the Kd [3]?
**A.** 14 nM

**Q.** What about the koff [3] of the same binder?
**A.** 0.014 s⁻¹

**Q.** What about the kon [3] of the same binder?
**A.** 970000 M⁻¹ s⁻¹

**Q.** What about the Kd [4] of the same binder?
**A.** 11 nM

**Q.** What about the koff [4] of the same binder?
**A.** 0.013 s⁻¹

**Q.** And the kon [4]?
**A.** 1.3e+06 M⁻¹ s⁻¹
